Experimental data from PubChem BioAssay AID360 (National Center for Advancing Translational Sciences (NCATS), 2006).
The whole screen tested about 48,000 compounds, of which about 550 (1.1%) were called active. Not shown: some 4% with an inconclusive outcome. Cut-off read from the data, not from the text of the source: active = potency below about 15 µM; inconclusive = mostly about 16 µM to 33 µM; inactive = weaker than that. The list shows a part of the results.

target: Lysosomal acid glucosylceramidase (Homo sapiens) (UniProt P04062); experiment: Glucocerebrosidase; details: purified enzyme, resorufin glucoside fluorescence (screen aimed at inhibitors), 20 min;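 note: the screen sought inhibitors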
Method in brief: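 Compounds titrated against 0.2 nM normal enzyme, 30 uM resorufin beta-D-glucopyranoside substrate, citrate/phosphate buffer with taurocholate and tween-20, pH 5.9. Reaction ran 20 min at room temperature; fluorescence (Ex 548/Em 600) gave AC50.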
Potency is the fitted concentration of half-maximal effect.

UniProt P04062, sequence (P04062 whole entry, looked up): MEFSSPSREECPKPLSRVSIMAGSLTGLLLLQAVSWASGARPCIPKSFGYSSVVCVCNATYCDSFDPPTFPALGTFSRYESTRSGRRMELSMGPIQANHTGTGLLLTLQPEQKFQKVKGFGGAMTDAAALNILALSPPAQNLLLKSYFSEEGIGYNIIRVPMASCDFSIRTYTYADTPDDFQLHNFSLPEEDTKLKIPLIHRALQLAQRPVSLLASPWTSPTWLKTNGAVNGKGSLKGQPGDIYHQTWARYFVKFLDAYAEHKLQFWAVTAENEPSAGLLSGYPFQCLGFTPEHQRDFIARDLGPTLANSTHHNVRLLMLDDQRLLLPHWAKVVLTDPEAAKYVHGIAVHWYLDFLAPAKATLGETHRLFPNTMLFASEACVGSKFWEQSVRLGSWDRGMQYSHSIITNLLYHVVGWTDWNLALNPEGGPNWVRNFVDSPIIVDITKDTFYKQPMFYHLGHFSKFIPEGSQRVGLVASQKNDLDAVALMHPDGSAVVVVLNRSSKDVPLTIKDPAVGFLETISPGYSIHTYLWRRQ

Potency, inactive:
COc1ccc(-c2cc3nc(C)c(CCC(=O)N4CCCCC4)c(C)n3n2)c(OC)c1 > 76.9 µM
CCCc1cc(=O)[nH]c(SCC)n1 > 76.9 µM
O=C(NCCCN1CCC(Cc2ccccc2)CC1)C1CCN(S(=O)(=O)N2CCOCC2)CC1 > 76.9 µM
CCC(C)(C)n1nnnc1CN(Cc1cccs1)Cc1cc2cc(OC)ccc2[nH]c1=O
CC(C)CCNC(=O)NC(=O)COc1ccccc1C#N > 76.9 µM
CCOC(=O)c1c(NC(=O)CSc2nnc(CNc3ccc(F)cc3)o2)sc(C(C)=O)c1C > 76.9 µM
Cc1ccc(-c2nnn(CC(=O)NCCc3ccc4c(c3)OCO4)n2)o1 > 76.9 µM
Cc1c(C(=O)N2CCOCC2)[nH]c2c1C(=O)CC(c1ccccc1Cl)C2 (stereo not given) > 76.9 µM
CC1CCc2nc(NC(=O)Cc3cccs3)sc2C1 (stereo not given) > 76.9 µM
CCOc1cc(C2C(C#N)=C(N)OC(C)=C2C(C)=O)cc(Br)c1O (stereo not given) > 76.9 µM
O=C(O)c1ccc(-n2cccc2)cc1O > 76.9 µM
COc1cccc(N2CC(C(=O)Nc3ccc(C(=O)OC(C)C)cc3)CC2=O)c1 (stereo not given) > 76.9 µM
O=C(NCc1ccccc1)N[C@@H](Cc1ccccc1)C(=O)O > 76.9 µM
CSCC[C@H](NC(=O)NCCC1=CCCCC1)C(=O)O > 76.9 µM
COC(=O)c1cccc(NC(=O)CSc2nnc(C)n2Cc2ccccc2)c1 > 76.9 µM
Cn1c(C(=O)NCC2CCCO2)cc2c(=O)[nH]c3ccccc3c21 (stereo not given) > 76.9 µM
CC(C)Cc1c(O)nc(SCCN2CCOCC2)[nH]c1=O > 76.9 µM
CCN(CCCNC(=O)CCNC(=O)Cn1cnc2ccccc2c1=O)c1cccc(C)c1 > 76.9 µM
COc1ccc2nc(NC(=O)C3CCCN(S(=O)(=O)c4cccc5nonc45)C3)sc2c1 (stereo not given) > 76.9 µM
O/N=C1\CC2(Cc3nonc31)OCCO2 > 76.9 µM
CCOC(=O)CSc1nc2sc(C)c(C)c2c(=O)[nH]1 > 76.9 µM
COc1cccc(NC(=O)c2ccc(CN3CCN(c4ccccc4)CC3)cc2)c1 > 76.9 µM
CCc1ccccc1N1CCN(S(=O)(=O)c2cc(OC)ccc2OC)CC1
O=C1c2ccccc2C(=O)N1Cc1nc2ccccc2c(=O)n1Cc1ccco1 > 76.9 µM
CCOc1ccc2[nH]c(=O)c(CN(CCO)C(=O)CC)cc2c1 > 76.9 µM
